Laboratory results as given in the supplement of paper PMC11417369.
Some of the results follow.

Tested on: PfAP2-HC AP2 domain (GST-tagged)
Assay: gcPBM binding intensity (ln(normalized median fluorescence intensity)); higher = stronger DNA binding
Summary of the method: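 Binding of GST-tagged P. falciparum DNA-binding domains, expressed in E. coli and used at about 25 μg on average, was carried out for 1 h in 1× PBS containing 1% milk, 0.2 mg/ml BSA, 0.5% salmon testes DNA and 0.03% Triton X-100. The target was an Agilent 4 × 180k array of primer-extended double-stranded 36-bp intergenic genomic probes plus negative controls, read with Alexa488 anti-GST antibody at 488 nm. Binding intensity is the highest Masliner-normalised natural-log median intensity across replicate spots of either probe orientation.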

Going from “ATCATAACACCTCCACACAAATAAATATAACATATA [XGTACX_negctrl_site269]” to “ATGAGTGCACAAATATATATATATATATATATATAT [CACACA_negctrl_site404]”, the “gcPBM binding intensity (ln)” value rises from 9.87 to 10.6.

Going from “CTTTTTATTAAATATGCATGTGTATCAACAGTGAAT [TGCATGCA_site447]” to “GTTATACGCATATATACACACATATGTAAATATATA [CACACA_site3280]”, the “gcPBM binding intensity (ln)” value rises from 9.5 to 9.86.

Going from “TAAAAAAAATAGCATACACACATATATACCTATATA [CACACA_site4535]” to “AAACAATTTATGTGTAGTACATGTTGGAGATAATTT [XGTACX_site6000]”, the “gcPBM binding intensity (ln)” value falls from 9.97 to 9.74.

Compared with “GAAAATATATTATTTACACACATGTTCAAATTAAAA [CACACA_site3761]”, “TATTAAATATAAGTCACACATAATTTTTCGTCCTTT [CACACA_site5065]” is higher in “gcPBM binding intensity (ln)” value: 9.61 for the first, 9.62 for the second.

Compared with “CATACACCCGGACACACACACACACCCATATATAAT [CACACA_site4494]”, “TTGTTTTTTTCTTTTTGTACATATACAACATACATA [XGTACX_site8996]” is lower in “gcPBM binding intensity (ln)” value: 10.5 for the first, 9.78 for the second.

First: ATATATATATATATATGTACATATATTTTCTTTTTG [XGTACX_site6017]
Second: TTGTTCTATAATTATACATGCATTAACAGAGTAAAA [TGCATGCA_site909]
The “gcPBM binding intensity (ln)” value of the first is higher: 9.6 for the first, 9.46 for the second.

Going from “AAAAACGATTAATGTGTACACACATAGTTATAAACA [CACACA_site8659]” to “TTTTTTTTTTTTTAATGTACAAATATGGTGACAAAA [XGTACX_site8709]”, the “gcPBM binding intensity (ln)” value falls from 9.99 to 9.3.

First: AGGATAACATACAAAAGTACATAAAACTAAAAAAAC [XGTACX_site26]
Second: TATATATATTTTTGAAGTACTTATTACACTAGCATT [XGTACX_site8965]
The “gcPBM binding intensity (ln)” value of the first is higher: 10.1 for the first, 9.69 for the second.

Compared with “AAGAAAATATAACAAAGTAAAAACATATTATATATA [TGCATGCA_negctrl_site248]”, “TATATTTTGTTTTTGTGTACATATTGGTAGTTATTT [XGTACX_site7659]” is higher in “gcPBM binding intensity (ln)” value: 9.62 for the first, 9.74 for the second.

Compared with “AAAAATAGTCTTCTTGCACTTTTTAATTTATTTTAA [CACACA_negctrl_site1322]”, “TGATTATCCTATATATATTTCATAATGGAAAAAAAT [TGCATGCA_negctrl_site444]” is lower in “gcPBM binding intensity (ln)” value: 9.35 for the first, 9.15 for the second.

First: AATGTGGTATTTACAAAAAGGCTTTATACTTAAAAA [XGTACX_negctrl_site566]
Second: CTTTTCATCTTCTTAACACACAAAAAAAAAAAAAAA [CACACA_site3886]
The “gcPBM binding intensity (ln)” value of the first is higher: 9.27 for the first, 9.24 for the second.

“AAAATTCAGCGAAAGGGTACATATGTGTAAGGGTAA [XGTACX_site8205]” and “TATATTTATATACCAACACACATACATATTTATATA [CACACA_site6931]” are the same in “gcPBM binding intensity (ln)” value: 10 for the first, 10 for the second.

First: CTATTATATCAGTAGACACACATATAACATTTATAT [CACACA_site141]
Second: AATGTGCTCGCTATTACACACTCATTGGGATAAAAT [CACACA_site8627]
The “gcPBM binding intensity (ln)” value of the first is higher: 9.87 for the first, 9.61 for the second.

Compared with “AGTAACAATTATTATGCATGTACAAATAATCATTTT [TGCATGCA_site867]”, “ATCTTATATTATCACACACACACGCACAAAACAGAA [CACACA_site1463]” is higher in “gcPBM binding intensity (ln)” value: 9.71 for the first, 10.3 for the second.

Going from “TTTATTAAACTTGACACACACACACCCACATATATA [CACACA_site760]” to “ATATTATATAGAAACACACATACACATGTAAATATA [CACACA_site2037]”, the “gcPBM binding intensity (ln)” value falls from 10.2 to 10.1.

Going from “ATGGATTTTACCATAGCACACATATATGAATATTTT [CACACA_site8535]” to “ATATAGAAAATGCATACACACTTTATATATATATTT [CACACA_site4658]”, the “gcPBM binding intensity (ln)” value rises from 9.7 to 9.9.

Compared with “TAATTATTTCGTATATTTGAATGGTACATGCTTATA [CACACA_negctrl_site1178]”, “ATTCATATCTACTTCACACACATTTGATCATTCAAA [CACACA_site7207]” is higher in “gcPBM binding intensity (ln)” value: 9.48 for the first, 9.98 for the second.

Compared with “ATAGTATTTTTTATTACACACAAATAAAAAGAAAAA [CACACA_site2087]”, “ATGAAACAGTAACATTGTACTTTTACAAAAAAATAA [XGTACX_site806]” is lower in “gcPBM binding intensity (ln)” value: 9.74 for the first, 9.61 for the second.

First: AAAATCTATATTAACACACACACAAAAAAAAAAAAA [CACACA_site6738]
Second: TTTAAAAAAAATATGTGTACTTAATATTTTCATATA [XGTACX_site7421]
The “gcPBM binding intensity (ln)” value of the first is higher: 10.6 for the first, 9.34 for the second.

First: TACATATAAATAATAACACACACCTAGGTACATGGA [CACACA_site838]
Second: CATACACAGAAACACACACACATATATATATATATA [CACACA_site4519]
The “gcPBM binding intensity (ln)” value of the first is higher: 10.4 for the first, 10.2 for the second.

Compared with “AGAAAGGAGGAAATAAAAGGACTTCTTTTTTTATAT [CACACA_negctrl_site810]”, “TTTCATTTCACAGACACACACACACCCTATATTTCC [CACACA_site3906]” is higher in “gcPBM binding intensity (ln)” value: 9.4 for the first, 11.2 for the second.

Going from “ATATATTTTATATAGTGTACTTTAATTTTTTTTTTT [XGTACX_site5550]” to “ATTTTTTTTTTTTTTGAACACACATTATTAATTTTT [CACACA_site7990]”, the “gcPBM binding intensity (ln)” value rises from 9.47 to 9.94.

Compared with “ATAAATAAAACAAAATGTACAAATATTCATATATTC [XGTACX_site1307]”, “ATATATATATATGTTAGTACTTATATTGAAATGGTA [XGTACX_site1406]” is lower in “gcPBM binding intensity (ln)” value: 9.8 for the first, 9.67 for the second.

Going from “TTATTTACCTATTATAGTACATATAATTAATATAAT [XGTACX_site5724]” to “ATCTTTCGTACATGTACACACAGAAAAAAAAAAAAA [CACACA_site2502]”, the “gcPBM binding intensity (ln)” value rises from 9.6 to 9.64.

Compared with “GTTCCCATAAATAAATGTACATATTATATATATATA [XGTACX_site3242]”, “GTGTAATCATATAAGGGTACAAAAAATGTCTAACAA [XGTACX_site8122]” is lower in “gcPBM binding intensity (ln)” value: 9.68 for the first, 9.63 for the second.

First: GTAAAAATTTCATATTCACACACAAAAAAAAAAAAT [CACACA_site8457]
Second: TTACTAAACTTATATGTACACACATATAACATTAAT [CACACA_site8710]
The “gcPBM binding intensity (ln)” value of the first is higher: 10.5 for the first, 10.2 for the second.

Compared with “TAAAAAAAAAAAAAAAGTACCCATACTATATTACAT [XGTACX_site946]”, “AAGAATTTTACAAAATGTACTTATGTTTTGTTTTAC [XGTACX_site5632]” is higher in “gcPBM binding intensity (ln)” value: 9.54 for the first, 9.79 for the second.

Compared with “AGTAGTCTGGAGAAGAGTACATAGTATCTGATAACC [XGTACX_site2044]”, “TAATTAATATATTTTTGTACTTATATATTTGCGTAT [XGTACX_site340]” is lower in “gcPBM binding intensity (ln)” value: 9.73 for the first, 9.71 for the second.
